In US11446276B2, “Extreme low dose THC as a therapeutic and prophylactic agent for Alzheimer's disease” (University of South Florida, priority 2015, dated 2022):

Test system: Aβ in N2a/AβPPswe cells
Assay: Sandwich ELISA of Aβ in N2a/AβPPswe cells treated with THC and CB1 inhibitor rimonabant
Format: cell-based, human
Conditions: 0.1-100 μM rimonabant with 25 nM THC
Method: The mechanism of action was elucidated for THC's effect on Aβ levels using a sandwich ELISA assay. N2a/AβPPswe cells, as discussed in Example 1, were suspended to 2×10^5/mL, 3 mL plated into each well, and grown in DMEM with 10% fetal bovine serum, 100 U/mL penicillin, 100 μg/mL streptomycin, and 400 μg/mL G418 (Invitrogen), at 37° C. in the presence of 5% CO2. N2a/AβPPswe cells were subcultured using trypsin, and pipetted numerous times to ensure cells were separated into individual cells. Cells were counted, as provided in Example 1, and proper amount of cell medium and fresh medium was added into new flasks according to the ratio of dilution. Pipetting was performed 10 times to homogenize cells, and 3 mL of cells were seeded into medium into each 6 well plate. When one pipette was used up, the cells were mixed in the flask before using them for the next pipette. Compounds were suspended in DMSO.
12 hours after cells were plated, cells were treated with 25 nM of Δ9-THC (T4764-1ML Sigma Aldrich, Merck KGaA; Darmstadt, Germany), with the known inhibitor of the CB1 receptor, rimonabant, at 0 μM, 100 μM, 10 μM, 1 μM, or 0.1 μM rimonabant. Untreated N2a/AβPPswe cells were used as a control. Treatment was then washed out, i.e. the medium was then removed from the cultures and 3 mL of media containing the treatment compounds were added. […]

Cc1c(C(=O)NN2CCCCC2)nn(-c2ccc(Cl)cc2Cl)c1-c1ccc(Cl)cc1 [rimonabant]
Aβ as the concentration of the inhibitor was increased: dose-dependent increases in Aβ
